In all, about 310,000 compounds went through this assay and about 14,000 (4.5%) showed an effect of 50% or more. Effects have a minus sign here. Some of the results follow.
These molecules were tested against human ether-à-go-go-related gene (hERG) potassium channel (human, UniProt Q12809) (assay: primary screen, population patch clamp on CHO cells stably expressing hERG).
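Also: peak tail current of the secondary pulse compared with the same well before compound.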

Sequence of human ether-à-go-go-related gene (hERG) potassium channel (Q12809 whole entry, looked up): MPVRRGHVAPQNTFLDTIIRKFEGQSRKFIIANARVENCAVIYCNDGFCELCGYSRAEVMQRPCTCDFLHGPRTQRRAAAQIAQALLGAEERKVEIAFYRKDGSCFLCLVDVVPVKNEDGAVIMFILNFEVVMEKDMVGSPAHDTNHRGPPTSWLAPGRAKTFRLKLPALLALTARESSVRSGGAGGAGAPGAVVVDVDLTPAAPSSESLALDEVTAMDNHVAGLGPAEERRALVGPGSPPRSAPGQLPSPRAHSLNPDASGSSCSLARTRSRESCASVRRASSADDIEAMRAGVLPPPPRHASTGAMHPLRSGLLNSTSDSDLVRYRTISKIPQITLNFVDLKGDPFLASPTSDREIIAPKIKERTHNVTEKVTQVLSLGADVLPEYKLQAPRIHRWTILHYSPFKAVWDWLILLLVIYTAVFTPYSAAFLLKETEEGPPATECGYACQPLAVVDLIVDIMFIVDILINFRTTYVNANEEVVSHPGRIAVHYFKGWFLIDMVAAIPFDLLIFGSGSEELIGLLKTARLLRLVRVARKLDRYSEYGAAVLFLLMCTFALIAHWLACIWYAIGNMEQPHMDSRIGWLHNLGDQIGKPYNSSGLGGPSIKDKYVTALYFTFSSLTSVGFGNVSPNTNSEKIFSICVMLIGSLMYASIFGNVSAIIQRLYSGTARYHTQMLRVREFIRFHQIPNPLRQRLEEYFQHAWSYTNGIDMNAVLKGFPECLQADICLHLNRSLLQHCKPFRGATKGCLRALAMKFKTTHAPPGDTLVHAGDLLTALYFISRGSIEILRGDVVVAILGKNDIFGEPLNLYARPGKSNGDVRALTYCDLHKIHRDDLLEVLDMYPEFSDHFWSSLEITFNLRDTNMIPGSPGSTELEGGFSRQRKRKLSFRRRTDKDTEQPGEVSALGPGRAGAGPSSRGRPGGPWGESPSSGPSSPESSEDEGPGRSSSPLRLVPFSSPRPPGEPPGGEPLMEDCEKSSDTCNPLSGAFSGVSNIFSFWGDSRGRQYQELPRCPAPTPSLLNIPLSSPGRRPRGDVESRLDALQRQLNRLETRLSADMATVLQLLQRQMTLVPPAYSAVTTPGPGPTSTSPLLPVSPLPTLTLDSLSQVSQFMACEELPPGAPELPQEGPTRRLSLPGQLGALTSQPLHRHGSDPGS

Structure (SMILES) | hERG current change (%, negative = inhibition) at 10uM [%]
Cc1ccc(-c2n[nH]c(=S)n2/N=C/c2ccncc2)cc1 | 17.5
C[C@@H]1CC[C@]2(O[C@@H](CCO)C[C@@H](O)[C@@H]2O)O1 | 23.3
O=C(c1ccc2c(c1)OCO2)N1CCN(C(=O)c2ccco2)CC1 | 7.36
COc1ccccc1NC(=O)C(C)NS(=O)(=O)c1ccc(F)cc1 (stereo not drawn) | -0.796
CCOc1ccccc1NC(C)C(=O)Nc1cc(C(F)(F)F)ccc1N1CCOCC1 (stereo not drawn) | -6.23
O=C(NCc1ccc(F)cc1)C(c1cccs1)N(C(=O)c1csnn1)C1CC1 (stereo not drawn) | -20.3
O=C(Cn1cnc(S(=O)(=O)N2CCCCC2)c1)Nc1ccc(OC(F)(F)F)cc1 | 22
COc1ccc(NC(=O)CCCn2cnc3ccccc3c2=O)c(OC)c1 | -26.4
COc1ccc(C(=O)O)cc1S(=O)(=O)Nc1cc(Cl)ccc1N1CCOCC1 | 13
CC(C)CCn1c(Sc2nc3ccccc3s2)nc2c1c(=O)[nH]c(=O)n2C | -0.292
Cc1ccc(C(=O)NN2C(=O)C3C4c5ccccc5C(c5ccccc54)C3C2=O)cc1 (stereo not drawn) | -0.0938
O=C(CC1COc2ccccc2O1)NC1CCCCC1 (stereo not drawn) | 5.61
COc1cc(C(C)=O)ccc1Oc1ncccn1 | 8.3
Cc1cccc2nc(C(=O)Nc3cccc(C(=O)NC4CC4)c3)cn12 | 7.27
O=C(NCCN1CCCCC1)Nc1ccc(Cl)cc1 | -33.7
O=C(NN1CCCCC1)c1ccc(COc2ccc(Cl)cc2)cc1 | -6.27
CCc1ccc(OCC(=O)N(C)C)c(Br)c1 | -7.33
COc1ccc2c(c1)c(C(=O)OCCN(C)C)c(C)n2C.Cl | -1.4
CCCCN1C(=S)NC[C@@H]1C(C)CC (stereo partly drawn) | 12.9

Structure (SMILES) | hERG current change (%, negative = inhibition) at 10uM [%]
Nc1c(C(=O)NCCN2CCOCC2)c2nc3ccccc3nc2n1Cc1ccccc1 | 1.38
CC1CC(C)CN(S(=O)(=O)N2CCCC(C(=O)NCCCN3CCCCC3C)C2)C1 (stereo not drawn) | -9.36
O=C(/C=C/c1ccc2c(c1)OCO2)Nc1c(C(=O)O)[nH]c2ccccc12 | 7.78
O=C(Cn1cc2c(n1)CCCC2)Nc1ccccc1Cl | 9.62
CCN1CCN(S(=O)(=O)CC2(C)C3CCC2(C)C(=O)C3Br)CC1 (stereo not drawn) | 21.7
O=c1c2c(-c3ccc(Cl)cc3)csc2ncn1/N=C/c1cccc([N+](=O)[O-])c1O | 3.44
COc1ccc(NC(=O)C(C)SCc2ccccc2)cc1 (stereo not drawn) | 8.06
COC(=O)c1ccccc1NC(=O)c1ccccc1N(C)S(=O)(=O)c1ccccc1 | 6.83
CCOC(=O)c1sc(-c2ccc(F)cc2)cc1NC(=O)Nc1ccccc1OC | -8.5
Cc1oc(C(=O)O)cc1CSc1nnc(-c2ccccc2)n1C | -7.82
O=C(Cc1cccs1)N1CCN(S(=O)(=O)c2ccc(Br)cc2)CC1 | -2.75
Cc1cccc(Cn2c(N3CCN(c4ccccc4)CC3)nc3c2c(=O)n(C)c(=O)n3C)c1 | -36
Cc1ccc(-n2c(SC3CCOC3=O)nc3ccccc3c2=O)cc1 (stereo not drawn) | -9.48
Cc1ccc(CNC(=O)CNC(=O)[C@@H]2Cc3ccccc3CN2C(=O)OC(C)(C)C)cc1 | -14.8
COC(=O)N/N=C/c1ccc(-c2ccc(Cl)c(Cl)c2)o1 | 0.0538
CCNCc1ccc(OCc2cccs2)c(OCC)c1 | -1.95
CC(=O)Nc1ccc(NC(=O)COc2cc(O)c3c(c2)OC(C)(C)CC3=O)cc1 | -15.8
Cc1nc(SCC(=O)c2cc3ccccc3oc2=O)c(C#N)c(-c2ccccc2)c1C(=O)Nc1ccccc1 | -1.93
COc1ccc(OC)c(C(=O)COC(=O)C(CCSC)NC(=O)COc2ccccc2)c1 (stereo not drawn) | -26.5

Structure (SMILES) | hERG current change (%, negative = inhibition) at 10uM [%]
CCN(C(=O)COn1nnc2ccc(S(=O)(=O)N(C)C)cc21)C1CCS(=O)(=O)C1 (stereo not drawn) | 1.39
CCOC(=O)c1c(-c2ccc(C)cc2)csc1NC(=S)NC(=O)c1ccccc1 | 2.84
CC(C)c1cccc(O)c(=O)c1 | -1.62
CCc1cccc(C)c1NC(=O)C1CCCN(S(C)(=O)=O)C1 (stereo not drawn) | 23.6
CSc1cccc(NC(=O)CSc2ccc(Cl)cc2)c1 | 14.1
Cc1ccccc1OCCC(=O)Nc1ccc(Cl)cc1F | -9.38
Cc1nc2cc(C(F)(F)F)ccc2n1CCNc1nc(-c2ccc([N+](=O)[O-])c(Cl)c2)cs1 | -4.07
Cc1ccc2nc(C)cc(C(=O)N/N=C/c3ccncc3)c2c1 | 1.94
Cc1nnc(SCC(=O)Nn2cnnc2)s1 | -11.6
CC(OC(=O)c1ccc2ncsc2c1)C(=O)N1CCCC1 (stereo not drawn) | -56.9
COc1ccc(N(CC(=O)N/N=C/c2cccs2)S(=O)(=O)c2ccccc2)cc1 | -4.75
Cn1c(=O)c2c(nc(NCc3ccc4c(c3)OCO4)n2Cc2ccccc2)n(C)c1=O | -5.22
CC(C)Sc1nc2c(c(=O)[nH]c(=O)n2C)n1C | -1.58
Cc1ccc(C)c(/C=C/C(=O)c2ccccc(=O)c2O)c1 | -50.7
Brc1cc2c(cc1COc1ccc(-c3nn[nH]n3)cc1)OCO2 | 11.2
CCOc1ccccc1C(=O)OCC(=O)NCCc1ccc(OC)cc1 | -43.1
Cc1ccc(NC(=O)COc2ccc(C3SCCS3)cc2)cc1 | 5.06
CC(Sc1nc2scc(-c3ccccc3)c2c(=O)[nH]1)C(=O)NC(N)=O (stereo not drawn) | 2.33
CCOC(=O)c1[nH]c2ccc(OC)cc2c1NC(=O)CCN1CCC(C)CC1 | -22.8
